PubChem BioAssay AID493208 (National Center for Advancing Translational Sciences (NCATS), 2011)
Hit rate of the full screen: of about 44,000 compounds, about 340 (0.77%) were called active. Not shown: some 5% with an inconclusive outcome. The call rests on the fitted dose curve; in most records, active means well fitted inhibition curve with a large enough effect; inconclusive means small, poorly fitted or top-dose-only effect; inactive means flat fitted curve, though single readings scatter. Some of the results follow.

assay: Acumen qHTS Assay for Inhibitors of the mTORC1 Signaling Pathway in MEF (Tsc2-/-, p53-/-) Cells: Sytravon; settings: phospho-rpS6 immunofluorescence/PI, 24 h; series mostly up to 38.3 µM; activity change, negative = inhibition: at the top concentration;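 further: plate controls were DMSO for no effect and rapamycin for full effect; nearly all actives have a fitted effect of over 50% in size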
Summary of the method: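 Immunofluorescence of rpS6 phosphorylation in Tsc2-/-, p53-/- MEFs after 24 h compound exposure, normalized to propidium iodide signal. Activity is expressed as % positive cells, thresholded with 7.5 nM rapamycin.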

Compound	activity change, negative = inhibition
Cc1cccc(Nc2nc3ccccc3n3c(N)nnc23)c1	inactive: -13.2%
Cc1cc2n(n1)CCCN2C(=O)Nc1cccc(C)c1C	inactive: 4.64%
Cc1ccc(Cn2c(=O)c3cccnc3n(Cc3ccc(F)cc3)c2=O)cc1	inactive: -6.41%
COc1cccc(N2CCN(c3ncc4c(n3)CCN(Cc3ccc(Br)cc3)C4)CC2)c1	inactive: 0%
CCc1ccc2oc(C(=O)Nc3nc(-c4ccccc4)ns3)c(C)c2c1	inactive: -3.24%
Cc1cccc(CNC(=O)c2ccc(Cn3c(SCc4ccccc4)nc4cccnc43)cc2)c1	inactive: -14.4%
Cc1c(C(=O)N(C)C)sc2c1c(=O)n(-c1ccc(F)cc1)c(=O)n2CC(=O)N(C)c1ccccc1	inactive: -6.59%
COc1ccccc1CNC(=O)CCC1N=C2c3ccccc3N=C(SCC(=O)NCCc3ccccc3)N2C1=O (stereo not drawn)	inactive: -0.892%
Cc1cc2oc(C(=O)Nc3ccc(S(=O)(=O)Nc4onc(C)c4C)cc3)cc(=O)c2cc1C	inactive: -0.927%
Cc1ccc(C)c(NC(=O)Cn2c(=O)oc3cc(S(=O)(=O)NCc4ccccc4)ccc32)c1	inactive: -7.55%
COc1ccc(Cl)cc1NC(=O)c1nc(S(C)(=O)=O)ncc1N(Cc1ccc(C)cc1)Cc1ccco1	inactive: -5.59%
CCOc1ccc(-n2c(SC(C)C(=O)OC)nc3c([nH]c4ccccc43)c2=O)cc1 (stereo not drawn)	inactive: -4.08%
O=C(CSc1nc(=O)[nH]c2c1CCCC2)NCc1ccc(Cl)cc1	inactive: 0.877%
CCOC(=O)c1c(NC(=O)/C=C/c2ccc(OC)cc2)sc2c1CCC(C)C2 (stereo not drawn)	inactive: -1.64%
Cc1ccccc1C(=O)Nc1sc2c(c1C(=O)N1CCC(C)CC1)CCCC2	inactive: -17%
COc1ccc(NC(=O)Cn2c(=O)n(CC3CCCO3)c(=O)c3ccccc32)cc1 (stereo not drawn)	inactive: 3.82%
CCCCCCNc1ncnc2c1sc1nc(N3CCOCC3)c3c(c12)CCCC3	inactive: -1.62%
CCCCSCCCNC(=O)c1cc(-c2cccnc2)nc2ccc(S(=O)(=O)N3CCC(C)CC3)cc12	inactive: -4.22%
O=C(Nc1cccc(C(=O)N2CCN(c3ccc(F)cc3)CC2)c1)c1nsc2ccccc12	inactive: -0.867%
CCCN(C(=O)c1nn(-c2ccc(C)cc2)c(=O)c2c1c1ccccc1n2C)c1ccccc1C	inactive: 2.33%
Cc1oc2ccc(O)c(CN3CCN(Cc4ccccc4)CC3)c2c1C(=O)Nc1cccc(Cl)c1C	inactive: 3.42%
O=C(Nc1ccc(Oc2ccccc2)cc1)C1CCN(S(=O)(=O)c2ccccc2)CC1	inactive: -24.3%
COc1ccccc1/C=C/c1nc(C#N)c(NC(C)c2ccccc2)o1 (stereo not drawn)	inactive: -4.1%
CC(=O)c1ccc(N2CCN(C(=O)Cn3ncc4c3-c3ccccc3OC4)CC2)cc1	inactive: -11.2%

Compound	activity change, negative = inhibition
CCOc1ccc(NC(=O)c2cnn3c(C(F)F)cc(-c4ccc(C)cc4)nc23)cc1	inactive: -2.75%
Cc1c(Cl)cccc1NC(=O)CN1C(=O)CSc2ccc(S(=O)(=O)N3CCCC3)cc21	inactive: -7.35%
CC(=O)c1cc(-c2ccc(F)cc2)n(CCC(=O)NCc2ccc(C)cc2)c1C	inactive: -3.37%
Cc1ccc(NC(=O)CN2CCN(C3CCCCC3)C(=O)C2=O)cc1	inactive: 0%
O=c1cc(COc2cccc(C(F)(F)F)c2)nc2sc3c(n12)CCCC3	inactive: 0.961%
Cc1ccc(-n2ncc(C(=O)N3CCN(C4CCCCC4)CC3)c2C2CCN(C(=O)OC(C)(C)C)CC2)cc1	inactive: -2.61%
CC(C)NC(=O)c1nn(C)c2c1CS(=O)(=O)c1ccccc1-2	inactive: 5.79%
COC(=O)c1cc(Cl)ccc1NC(=O)Cn1c(C)cc(C)c(C#N)c1=O	inactive: -15.3%
CC(=O)Nc1ccc2nc(SCc3ccccc3)sc2c1	inactive: -0.735%
CCOc1ccccc1CN(CCc1ccc2c(c1)OCO2)Cc1cc(OC)c(OC)cc1OC	inactive: 1%
COc1ccccc1CNc1nc(-c2ccco2)nn1S(=O)(=O)c1ccc(C)cc1	inactive: 0%
Clc1ccc(CN2CCc3nc(Nc4ccc5c(c4)OCCO5)ncc3C2)cc1	inactive: 0%
CCn1c(=O)c2sccc2n2c(CCCC(=O)N3CCN(c4ccccc4OC)CC3)nnc12	inactive: 3.22%
Cc1ccccc1C(=O)NCc1ccc2c(c1)CCN2C(=O)c1ccccc1	inactive: -5.99%
CCOC(=O)N1CCC(NC(=O)c2cnn(-c3cccc(C)c3)c2C2CCN(C(=O)OC(C)(C)C)CC2)CC1	inactive: 2.82%
COc1ccc(CNC(=O)C(=O)NCC(c2cccs2)S(=O)(=O)c2ccc(C)cc2)cc1 (stereo not drawn)	inactive: -3%
O=C(c1ccc(F)cc1)N1c2ncnn2C2(CCCCC2)[C@@H]2CCCC[C@@H]21	inactive: -2.96%
Cc1ccc(-c2nsc(NC(=O)c3oc4cc(C)c(Cl)cc4c3C)n2)cc1	inactive: -0.501%
CCn1c(SCC(=O)Nc2cccc(Cl)c2)nnc1-c1nonc1NC(C)=O	inactive: -7.58%
Cc1cccc(NS(=O)(=O)c2nnc(NC(=O)C3CCCCC3)s2)c1	inactive: -2.92%
COc1cc2[nH]c(=O)n(Cc3ccc(C(=O)N4CCN(c5cccc(C)c5C)CC4)cc3)c(=O)c2cc1OC	inactive: -4.65%
CCOC(=O)c1ccc(NC(=O)c2ccc3c(c2)CCN3S(=O)(=O)c2ccc(Cl)cc2)cc1	inactive: -4.48%
COc1ccc(CNC(=O)c2cc(Nc3ccc(OC)cc3OC)nc3ccccc23)cc1	inactive: 2.93%
Cc1ccc(-n2nc(CO)c(C(=O)NCCO)n2)cc1	inactive: 1.97%
